# In all, about 81,000 sequences were measured (“one-hybrid fitness for binding NBS DNA”: median about -0.1, highest 2% from about 0.36 on). The list shows a part of the results.
# B1: Caulobacter ParB omega fusion; a variant is named by its letters at X, in order, B8GW30 (parent)
# chain: MESVVVGEPGMSEGRRGLGRGLSALLGEVDAAPAQAPGEQLGGSREAPIEILQRNPDQPRRTFREEDLEDLSNSIREKGVLQPILVRPSPDTAGEYQIVAGERAWRAAQRAGLKTVPIMVRELDDLAVLEIGIIENVQRADLNVLEEALSYKVLMEKFERTQENIAQTIGKSXSHVANXMRLLXLPDEVQSYLVSGELTAXHARAIAAAADPVALAKQIIEGGLSVRETEALARKAPNLSAGKSKGGRPPRVKDTDTQALESDLSSVLGLDVSIDHRGSTGTLTITYATLEQLDDLCNRLTRGI
# Variants of: B1
# Test: one-hybrid fitness for binding NBS DNA (the Noc-binding site; scaled: cognate 1, non-cognate 0); higher = stronger binding
# Settings: with NBS DNA site
# Method in brief: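 Fitness is the rescaled log change in variant-to-wild-type read ratio, measured by Illumina sequencing of plasmids before and after bacterial one-hybrid selection. The scale puts cognate at 1 and non-cognate at 0. Selection of Caulobacter ParB libraries, four specificity codons randomised, took place in E. coli USO with a HIS3 reporter, site 19 bp from the promoter, over 48 hours at 37°C on M9-minus-histidine with 0.1 mM IPTG and 5 mM 3-AT.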
row,Variant,one-hybrid fitness for binding NBS DNA
1,NWAS,≤ 0.2
2,FRRP,≤ 0.2
3,NNYG,≤ 0.2
4,GHVM,≤ 0.2
5,CEKW,≤ 0.2
6,HICH,≤ 0.2
7,AYAG,≤ 0.2
8,KPAP,≤ 0.2
9,PQNW,≤ 0.2
10,RAYW,≤ 0.2
11,VCYS,≤ 0.2
12,GKPS,≤ 0.2
13,VDKN,≤ 0.2
14,SAVR,≤ 0.2
15,THQC,≤ 0.2
16,GRAN,≤ 0.2
17,PADQ,≤ 0.2
18,WSGA,≤ 0.2
19,QTDN,≤ 0.2
20,HKNA,≤ 0.2
21,RMIA,≤ 0.2
22,AMES,≤ 0.2
23,HLQS,≤ 0.2
24,HRLI,≤ 0.2

row,Variant,one-hybrid fitness for binding NBS DNA
1,GLCT,≤ 0.2
2,EHKA,≤ 0.2
3,HPDD,≤ 0.2
4,ASTV,≤ 0.2
5,AAHV,≤ 0.2
6,VRIL,≤ 0.2
7,VHPI,≤ 0.2
8,VSMM,≤ 0.2
9,NQMA,≤ 0.2
10,LAGF,≤ 0.2
11,VMSI,≤ 0.2
12,RAIK,≤ 0.2
13,RWMQ,≤ 0.2
14,EIKG,≤ 0.2
15,RAVF,≤ 0.2
16,RNPC,≤ 0.2
17,NMAC,≤ 0.2
18,LCRS,≤ 0.2
19,SPHH,≤ 0.2
20,QPMV,≤ 0.2
21,DDGE,≤ 0.2
22,DFTG,≤ 0.2
23,RLDD,≤ 0.2
24,DKAS,≤ 0.2

row,Variant,one-hybrid fitness for binding NBS DNA
1,KAVR,≤ 0.2
2,QICC,≤ 0.2
3,PKVW,≤ 0.2
4,RIPP,≤ 0.2
5,AMTR,≤ 0.2
6,LHVL,≤ 0.2
7,QQAM,≤ 0.2
8,ALVH,≤ 0.2
9,TPTS,≤ 0.2
10,FAES,≤ 0.2
11,QSAI,≤ 0.2
12,KFRW,≤ 0.2
13,RMTQ,≤ 0.2
14,KHII,≤ 0.2
15,YFSS,≤ 0.2
16,AHHS,≤ 0.2
17,YMPG,≤ 0.2
18,CTLA,≤ 0.2
19,RNEG,≤ 0.2
20,TNKC,≤ 0.2
21,SPCS,≤ 0.2
22,LHNM,≤ 0.2
23,PYGS,≤ 0.2
24,SITD,≤ 0.2

row,Variant,one-hybrid fitness for binding NBS DNA
1,QLGG,≤ 0.2
2,HSLA,≤ 0.2
3,TQMY,≤ 0.2
4,SVFK,≤ 0.2
5,WWHR,≤ 0.2
6,ATVS,≤ 0.2
7,MINT,≤ 0.2
8,YYYS,≤ 0.2
9,WYTS,≤ 0.2
10,APHE,≤ 0.2
11,RSSK,≤ 0.2
12,PICE,≤ 0.2
13,KYDN,≤ 0.2
14,WQTF,≤ 0.2
15,NWLC,≤ 0.2
16,LVTP,≤ 0.2
17,KVMG,≤ 0.2
18,MWMC,≤ 0.2
19,AIKC,≤ 0.2
20,LYEC,≤ 0.2
21,SLMF,≤ 0.2
22,SVNP,≤ 0.2
23,ELDR,≤ 0.2
24,KYLV,≤ 0.2

row,Variant,one-hybrid fitness for binding NBS DNA
1,KYRR,0.363
2,LDLM,≤ 0.2
3,TGYS,≤ 0.2
4,YDQG,≤ 0.2
5,HFSD,≤ 0.2
6,WFRC,≤ 0.2
7,ARVP,≤ 0.2
8,MSLA,≤ 0.2
9,QISW,≤ 0.2
10,PEWA,≤ 0.2
11,KRNQ,≤ 0.2
12,WGQS,≤ 0.2
13,HNNR,≤ 0.2
14,TDLN,≤ 0.2
15,MSQG,≤ 0.2
16,TTWN,≤ 0.2
17,YSER,≤ 0.2
18,MRTS,≤ 0.2
19,YCVT,≤ 0.2
20,QPWS,≤ 0.2
21,SKVY,≤ 0.2
22,HMTY,≤ 0.2
23,MRKH,≤ 0.2
24,AKDD,≤ 0.2

row,Variant,one-hybrid fitness for binding NBS DNA
1,HIPF,≤ 0.2
2,LRSG,≤ 0.2
3,FLYR,≤ 0.2
4,FCHT,≤ 0.2
5,LSYC,≤ 0.2
6,SQCS,≤ 0.2
7,WQRG,≤ 0.2
8,ARKR,0.364
9,VSWS,≤ 0.2
10,TPAF,≤ 0.2
11,LFIV,≤ 0.2
12,WPLG,≤ 0.2
13,EYYC,≤ 0.2
14,GNPV,≤ 0.2
15,HRDC,≤ 0.2
16,FEYR,≤ 0.2
17,QNIP,≤ 0.2
18,TDLI,≤ 0.2
19,CIHW,≤ 0.2
20,TETQ,≤ 0.2
21,VDQH,≤ 0.2
22,PRLT,≤ 0.2
23,RHTY,≤ 0.2
24,KFGT,≤ 0.2

row,Variant,one-hybrid fitness for binding NBS DNA
1,MKRD,≤ 0.2
2,DRLG,≤ 0.2
3,SLKH,≤ 0.2
4,SHHT,≤ 0.2
5,APHT,≤ 0.2
6,YFES,≤ 0.2
7,DHNG,≤ 0.2
8,MRAD,≤ 0.2
9,HHAS,≤ 0.2
10,FVIR,≤ 0.2
11,NPWC,≤ 0.2
12,PWIR,≤ 0.2
13,DGLC,≤ 0.2
14,EPYE,≤ 0.2
15,GLWC,≤ 0.2
16,HRPV,≤ 0.2
17,DDPN,≤ 0.2
18,PHTA,≤ 0.2
19,IYRL,≤ 0.2
20,QNDS,≤ 0.2
21,RGTF,≤ 0.2
22,EHPS,≤ 0.2
23,YMTL,≤ 0.2
24,LHLS,≤ 0.2

row,Variant,one-hybrid fitness for binding NBS DNA
1,SSPG,≤ 0.2
2,RHAK,≤ 0.2
3,TNFT,≤ 0.2
4,KMAE,≤ 0.2
5,IAKV,≤ 0.2
6,QMRM,0.45
7,PSIL,≤ 0.2
8,HAYP,≤ 0.2
9,ISTV,≤ 0.2
10,PMAR,≤ 0.2
11,TVRI,≤ 0.2
12,GCAN,≤ 0.2
13,DNQK,≤ 0.2
14,DSGG,≤ 0.2
15,KIPC,≤ 0.2
16,INHG,≤ 0.2
17,HAVG,≤ 0.2
18,AFWR,≤ 0.2
19,EGYC,≤ 0.2
20,GLSA,≤ 0.2
21,FRLM,≤ 0.2
22,SYYT,≤ 0.2
23,YNDG,≤ 0.2
24,GYVE,≤ 0.2

row,Variant,one-hybrid fitness for binding NBS DNA
1,QRYC,0.296
2,QAVQ,0.32
3,FMDR,≤ 0.2
4,LTPK,≤ 0.2
5,CNRT,≤ 0.2
6,STSN,≤ 0.2
7,SEGG,≤ 0.2
8,RMTN,≤ 0.2
9,HKSK,≤ 0.2
10,GNMC,≤ 0.2
11,PRCP,≤ 0.2
12,DLVS,≤ 0.2
13,STKC,≤ 0.2
14,HWAS,≤ 0.2
15,NCAS,≤ 0.2
16,LSAR,≤ 0.2
17,TIIC,≤ 0.2
18,WVIG,≤ 0.2
19,TGSP,≤ 0.2
20,YSNT,≤ 0.2
21,ASYA,≤ 0.2
22,HIWD,≤ 0.2
23,TSFL,≤ 0.2
24,RHCG,≤ 0.2

row,Variant,one-hybrid fitness for binding NBS DNA
1,SQSM,≤ 0.2
2,HYTY,≤ 0.2
3,GIKL,≤ 0.2
4,HVSC,≤ 0.2
5,VEYL,≤ 0.2
6,YGNC,≤ 0.2
7,LHLR,≤ 0.2
8,RAKM,0.203
9,LVSL,≤ 0.2
10,WAMN,≤ 0.2
11,RIHE,≤ 0.2
12,ERFG,≤ 0.2
13,WTGW,≤ 0.2
14,LAAW,≤ 0.2
15,SGPK,≤ 0.2
16,HDNC,≤ 0.2
17,HMYR,≤ 0.2
18,RKKF,≤ 0.2
19,HCEM,≤ 0.2
20,TPQY,≤ 0.2
21,VATL,≤ 0.2
22,ATNT,≤ 0.2
23,LRNG,≤ 0.2
24,SHYG,≤ 0.2

row,Variant,one-hybrid fitness for binding NBS DNA
1,KMKS,0.225
2,TWEG,≤ 0.2
3,KRYS,0.447
4,VCNG,≤ 0.2
5,QHDH,≤ 0.2
6,LIDE,≤ 0.2
7,CRMR,≤ 0.2
8,RCFM,≤ 0.2
9,VAHV,≤ 0.2
10,SGTF,≤ 0.2
11,RLAG,≤ 0.2
12,FDES,≤ 0.2
13,NSMC,≤ 0.2
14,WTST,≤ 0.2
15,CTLV,≤ 0.2
16,FVDS,≤ 0.2
17,IKGS,≤ 0.2
18,PGPM,≤ 0.2
19,NDSI,≤ 0.2
20,THSC,≤ 0.2
21,HFSC,≤ 0.2
22,TRMH,≤ 0.2
23,ASYN,≤ 0.2
24,TFGS,≤ 0.2

row,Variant,one-hybrid fitness for binding NBS DNA
1,QQTM,≤ 0.2
2,HTRC,≤ 0.2
3,TFMT,≤ 0.2
4,SFYM,≤ 0.2
5,WIVA,≤ 0.2
6,LVDS,≤ 0.2
7,VYDD,≤ 0.2
8,CNNR,≤ 0.2
9,LEDL,≤ 0.2
10,SMYN,≤ 0.2
11,LMAL,≤ 0.2
12,PGLV,≤ 0.2
13,IRDS,≤ 0.2
14,GACR,≤ 0.2
15,YPQT,≤ 0.2
16,RRWY,0.36
17,ATVM,≤ 0.2
18,MNLF,≤ 0.2
19,QIDI,≤ 0.2
20,NKSW,≤ 0.2
21,DRSA,≤ 0.2
22,RFGF,≤ 0.2
23,GKKR,0.254
24,TVTF,≤ 0.2

row,Variant,one-hybrid fitness for binding NBS DNA
1,KVDR,≤ 0.2
2,SWNY,≤ 0.2
3,VGMM,≤ 0.2
4,PALL,≤ 0.2
5,NMSG,≤ 0.2
6,AEWG,≤ 0.2
7,NRWN,≤ 0.2
8,TRRV,≤ 0.2
9,LDMG,≤ 0.2
10,RINP,≤ 0.2
11,TTHL,≤ 0.2
12,RLPH,≤ 0.2
13,QTFV,≤ 0.2
14,IHGT,≤ 0.2
15,KCLG,≤ 0.2
16,ESPE,≤ 0.2
17,ETNF,≤ 0.2
18,GMIM,≤ 0.2
